The supplement of paper PMC3724861
This is one part of the list.

System: T1, Caupolican (Caup) homeodomain DNA-binding domain
T1 sequence: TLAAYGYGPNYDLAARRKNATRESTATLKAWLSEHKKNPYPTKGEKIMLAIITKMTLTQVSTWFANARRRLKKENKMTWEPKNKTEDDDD
Assay: PBM E-score (8-mer, recovered from the published 9-mer minima) (E-score (dimensionless, -0.5 to 0.5)); Drosophila protein; higher = stronger relative binding preference, active = 0.31 or more
How it was run: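 An enrichment score, with higher meaning stronger, expresses relative binding preference for each short DNA word. The protein used was Caup's homeodomain DNA-binding domain (residues 214-303), produced by in vitro transcription and translation and tested at 100 nM on custom-designed protein binding microarrays. The 8-mer values were recovered from published 9-mer scores, each equal to the lower of its two constituent 8-mer scores.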

Sequence | PBM E-score
AGTAAGTC | inactive: 0.035
CCAATCTA | inactive: -0.0392
AATCCCGC | inactive: -0.127
ACGCCACA | ≥ -0.00325
ACCTCCCT | inactive: -0.195
CTTCCCTC | inactive: -0.163
CTGTAAAC | inactive: 0.18
CGTATACC | inactive: -0.0469
TAGAGGGA | inactive: -0.06
CAACCTCG | inactive: 0.0146
CGAATACG | inactive: 0.033
ACCGGAGC | inactive: -0.218
CGGCATCC | inactive: -0.0197
AAGCAGGT | inactive: -0.0901
GATTCGCC | inactive: -0.0863
CAGTTTCC | inactive: -0.137
GATCGTAC | inactive: 0.0539
AAGGTCCG | inactive: -0.161
CGCCAGTA | inactive: -0.115
GGAGGGTA | inactive: -0.0611
CCCTACAA | inactive: 0.221
ACCACCTC | inactive: -0.0283
TGGCCAAA | inactive: -0.0452
AAAACGCG | inactive: -0.0503
GGCAAAAA | inactive: -0.0489

Sequence | PBM E-score
AGTCGTCA | inactive: 0.0397
CTAGCTTC | inactive: -0.115
AACATTTG | inactive: 0.169
ACATCTCT | inactive: 0.211
ATACGCCA | ≥ 0.0087
AAGGAATA | inactive: 0.1
CGGCGGGA | inactive: -0.305
CACGCCCA | inactive: -0.0669
AGAGGAGG | inactive: -0.228
CCCACATC | inactive: -0.119
CAACCGTG | inactive: 0.0309
ACGAGTAC | ≥ 0.205
GAGGTGAA | inactive: -0.0724
TCGTATAA | inactive: 0.121
CCAAAGAG | inactive: -0.0529
AATTTTGG | inactive: 0.0161
AAATAACC | inactive: 0.0615
GGCCGAAC | inactive: -0.204
CCCTCCGG | inactive: -0.29
GCTTCAAC | inactive: -0.0387
CGTCGAAA | inactive: -0.0215
GCATGTCA | active: 0.44
ACCGAGAC | inactive: -0.0205
AGTTATAC | inactive: 0.0957
CTCGTCAA | inactive: 0.0256

Sequence | PBM E-score
CTGTCCCA | inactive: 0.0609
GAGCCGCC | inactive: -0.275
GTTCGCGA | inactive: 0.066
ACTAAGAC | inactive: 0.104
AGATTACA | inactive: 0.259
GCTAAACC | inactive: -0.148
GAATCGTA | inactive: 0.113
AGCTTTAA | inactive: 0.0355
GAGAGCAA | inactive: -0.0503
GGTCAACC | inactive: -0.125
CCTCAGCC | inactive: -0.194
ATTGGACC | inactive: -0.036
ATCAAGAG | inactive: 0.0898
ATTTGTCC | ≥ 0.218
GCTGGCAC | inactive: -0.13
CAGCACCC | inactive: -0.145
ATGGAATC | inactive: 0.0733
ACGTGCGA | inactive: -0.053
CTCACCAA | inactive: 0.0427
CTCATGGC | inactive: -0.156
TAGCTATA | inactive: 0.0605
GTTCCCGA | inactive: -0.0674
AAGGACTG | inactive: -0.131
GCCCTAAC | inactive: -0.104
ACTACATA | active: 0.35

Sequence | PBM E-score
CTGATGCC | inactive: -0.0515
CTAATCAC | inactive: 0.17
CTTTCTCC | inactive: -0.143
CCAAAGCC | inactive: -0.149
ACACAGTC | inactive: 0.164
CCGTCTAG | inactive: -0.143
GTCTCTAA | inactive: -0.0163
AACCGCAA | inactive: -0.0707
ACGACCCA | ≥ -0.0427
GCATGCTA | inactive: 0.0372
CGGCCACA | inactive: -0.158
CGGGCCTA | ≥ -0.155
GACGAGCC | inactive: -0.103
GAACTTTA | inactive: -0.00695
CATTGATC | inactive: 0.193
ATGTATAC | active: 0.356
GGCACGCC | inactive: -0.299
CATTTTCC | inactive: 0.0307
CATCCGGG | inactive: -0.0954
TTAAACAA | inactive: 0.23
CAAAAGGC | inactive: -0.126
AATGAACA | active: 0.317
GTATACGA | inactive: 0.164
GCAACAGA | inactive: 0.0449
AACCTCAT | inactive: 0.0361

Sequence | PBM E-score
ATCTCACG | inactive: -0.0706
ATCCTTAG | inactive: 0.0613
AGATAGAT | inactive: -0.017
GGCTATAA | inactive: 0.0235
ACCACAGG | inactive: -0.121
ATCCCGCC | inactive: -0.151
CAAAGCGC | inactive: -0.207
CGGACCAG | inactive: -0.154
ACACGGCG | inactive: 0.121
ACCCGGAT | inactive: -0.134
AGGCTCAA | inactive: -0.147
ACGCGTAA | inactive: 0.102
CGCAATTC | inactive: -0.0273
ATGAATGG | inactive: 0.00759
TAGAGCGA | inactive: 0.00712
CGTCACCA | inactive: -0.0548
AAACCTGC | inactive: -0.0458
CCCCGACC | inactive: -0.226
AATAATGC | inactive: 0.196
CGGCAACA | inactive: 0.135
GGGTGTCA | inactive: 0.0669
AGAGTTTG | inactive: 0.07
TACGCCTA | inactive: 0.0384
AGCTGTCC | inactive: 0.0287
ACTAAAAC | inactive: 0.158

Sequence | PBM E-score
TACGAAAA | inactive: 0.121
ATCATCAT | inactive: 0.178
GAATAGGA | inactive: 0.0312
CATCAAAA | inactive: 0.0461
AAACTAAG | inactive: 0.122
ACAGATAT | inactive: 0.159
ACGTTTCG | inactive: 0.00718
AAAGGACT | inactive: -0.036
GCCCGCAA | inactive: -0.142
GTTCGCCA | inactive: -0.0903
ATGTAAAC | active: 0.36
ACTCCCGC | inactive: -0.206
ACACGCCA | inactive: 0.143
CTCTTACA | inactive: 0.201
CGGATCTA | inactive: -0.0187
CTGAGAAC | inactive: 0.0563
TCATTTCA | inactive: 0.0666
CAAATGTC | inactive: 0.141
ATTGGCGC | inactive: -0.109
CTGGGAAG | inactive: -0.191
AAAGGGCC | inactive: -0.21
CACTCGAC | inactive: 0.0164
ACATGGAC | active: 0.338
AGCCCACA | inactive: -0.0841
ATGCACCC | inactive: -0.0289

Sequence | PBM E-score
GGACAAAA | inactive: 0.0445
CGGCATTC | inactive: -0.152
GGGGTATA | inactive: -0.109
CCGCGACG | inactive: -0.223
ACATGGCG | inactive: 0.191
AAGTTAAA | inactive: 0.112
ATAGGTAG | inactive: 0.0356
CTTCTGAA | inactive: -0.0808
ACGGGCTA | inactive: -0.16
GCTTGCAA | inactive: 0.115
TAATCTCA | inactive: 0.0667
AATTCTAC | inactive: 0.16
ACGATAAG | inactive: 0.0851
GCGAATAA | inactive: 0.0338
AGACCGAG | inactive: -0.0404
AAGTCCAG | inactive: -0.0216
CCAGGGCC | inactive: -0.225
GGAATGGA | inactive: -0.0697
ACTTAAGC | inactive: -0.00779
CGGGACGA | inactive: -0.0871
AAAAAGAG | inactive: -0.0876
GGCAGTAA | inactive: -0.0226
GCAGCACA | inactive: -0.0955
ACCCGGAG | inactive: -0.0531
GAGGATTA | inactive: 0.0358

Sequence | PBM E-score
GCCGACAC | inactive: -0.0167
CTTCGATA | inactive: 0.0741
GAACTTGC | inactive: 0.0541
ACTGTAAA | inactive: 0.154
AAACCAAA | inactive: 0.0468
ATGGGTAG | inactive: -0.0307
CATAAGAC | inactive: 0.163
TGACCGAA | inactive: -0.0489
GCCTGCCA | inactive: -0.158
CATGTACC | active: 0.416
AGGCTAAT | inactive: 0.0206
CACGCTTA | inactive: 0.0972
AATGCTGT | inactive: 0.117
CCCGAAAA | inactive: -0.0642
AGTGTGCC | inactive: -0.111
CGGGGGTA | inactive: -0.2
AAATAGTA | ≥ 0.187
ACTGTCTG | inactive: -0.0192
GTCAACAA | inactive: 0.285
AGCCAGCC | inactive: -0.205
CCAAAACC | inactive: 0.0157
CCAGCGAA | inactive: -0.0855
CAGGTGAA | inactive: 0.133
CAGATCCA | inactive: 0.0202
GCCGCCTA | inactive: -0.223

Sequence | PBM E-score
AGTTATCG | inactive: 0.0572
AAGCTAAT | ≥ 0.138
CGTGGGGC | inactive: -0.31
ACCAACAT | ≥ 0.285
CTGTGTAC | inactive: 0.272
CTATCGAG | inactive: -0.0187
CCGTACTC | inactive: -0.128
GGTCACCA | inactive: -0.166
GCCGTGAC | inactive: 0.0192
GCATGCGA | inactive: 0.0804
GGTTCTGA | inactive: 0.0192
CGTTACGA | inactive: 0.0114
ATGATTAG | inactive: 0.167
ATAGGACG | inactive: 0.0328
GGCTACCA | inactive: -0.0789
AGCCACCT | inactive: -0.138
GATTTCAA | inactive: -0.00333
TGATAAAA | inactive: 0.0449
ATGGCCCA | ≥ -0.0993
AATCAAGA | inactive: 0.097
TAAAAGTA | inactive: 0.107
CCCCTCCC | inactive: -0.234
AACGCATT | ≥ 0.094
GGAGATAC | inactive: -0.087
CTTCCCGA | inactive: -0.0231
